These results are taken from article PMC12136788.

Sequences and labels used below:
T1: UNK ZnF1-6 (called full-length) (human, UniProt Q9C0B0 30-357)
T1 sequence: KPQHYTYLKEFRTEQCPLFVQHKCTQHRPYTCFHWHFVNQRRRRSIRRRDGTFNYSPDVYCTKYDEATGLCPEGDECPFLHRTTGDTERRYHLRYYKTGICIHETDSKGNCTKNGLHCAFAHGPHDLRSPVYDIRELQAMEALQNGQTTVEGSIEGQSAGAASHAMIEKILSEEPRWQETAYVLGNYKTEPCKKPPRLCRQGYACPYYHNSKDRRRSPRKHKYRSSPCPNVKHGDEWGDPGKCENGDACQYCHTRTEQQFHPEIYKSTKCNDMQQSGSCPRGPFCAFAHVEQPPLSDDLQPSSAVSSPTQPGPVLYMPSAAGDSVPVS

B1: chr7:73597181:73597713:-|CDS|ENSG00000009950|control|control|control (ssRNA)
RNA: GGGAGUUCUACAGUCCGACGAUCGCCCAGAGGCAAGCCCCCCGCCCCAUCCCCUAGGGGACAGAAAGCCAGCCCCCCUACCUUAGCCCCUGCCACUGCCAGUCCCCCCACCACUGCGGGGAGCAACAACCCCUGCCUCACACACAACAGAGGAUUGAGCAUCA
B2: chr7:93099512:93101327:-|three_prime_utr|ENSG00000205413|control|control|control (ssRNA)
RNA: GGGAGUUCUACAGUCCGACGAUCUCUCAGUACCCAUUUAAUUUUUUUGGACUCAAGAUCUAUGCUUUAAACCGGCAAGGUUAUAGAUACAGCCUCUAGCUCUUCAGAUCUGUACAUGCAGUAUUUAAUUUCCUCUUAAACAUGCAACAGAGGAUUGAGCAUCA
B3: chr3:167305642:167305950:-|CDS|ENSG00000169064|control|control|control (ssRNA)
RNA: GGGAGUUCUACAGUCCGACGAUCAAAGUCUGAUGAUUCCUGUGUAUCACUUGAAAGCAAGGACACUUUGCUAGGUAGAGAUUUAGAAAAAGCUCCCAUUGAGGAGAAAUUAUCUCAAGACAUCAAAGAAUCCUUGGAAUUGAGCAACAGAGGAUUGAGCAUCA
B4: chr4:75800632:75800752:+|CDS|ENSG00000138768|unk|total|mutant (ssRNA)
RNA: GGGAGUUCUACAGUCCGACGAUCAAACAACUGAUUGAGAAGAGGAUUGGCAAAGAGAAUUUCACCGAGAAACCCGGAUUUAUCCGCAAACAUGAGUUGUAUUCCAGAGCAUCUCAGAAACCCCAGCCAAACUUUCCCAGUCCACAACAGAGGAUUGAGCAUCA
B5: chr10:89738052:89738153:+|CDS|ENSG00000138182|unk|FALSE|bound_elsewhere (ssRNA)
RNA: GGGAGUUCUACAGUCCGACGAUCCUGGAACAACAAAUUGAAAAAUUGCAGGCAGAAGUAAAAGGCUAUAAGGAUGAAAACAAUAGACUAAAGGAGAAGGAGCAUAAAAACCAAGAUGACCUACUAAAAGAAAAAGAAACUCUUCAACAGAGGAUUGAGCAUCA
B6: chr6:13358100:13358202:-|3pUTR|ENSG00000145990|unk|total|mutant (ssRNA)
RNA: GGGAGUUCUACAGUCCGACGAUCAGUAAACAGAGUCUAUAUUUUCUAUAUAAUGCCGACCGUCAAACACCGCUUAUAAAUUACCGGAGGUUUUGGUUUUCUUUUUUAUUAUUAAAGGAAAAAAAGAAGAAAAAAAAAGACAAUCAACAGAGGAUUGAGCAUCA
B7: ENSG00000198856:stop:overlap|stop_codon|ENSG00000198856|stop_codon|NA|stop_codon (ssRNA)
RNA: GGGAGUUCUACAGUCCGACGAUCUGAGUUUUUUCAUGGCUAGAGUAUUCAUGAGAAUGAAACUGCCGGGCUAUCUGAUGGGUUAGAGUGCCUUUGAGAAGAAAUCAGUGGAUACUGGAUUUGCUCCUGUCAAUGAAGUUUUAACAACAGAGGAUUGAGCAUCA
B8: chr3:27418507:27418620:-|CDS|ENSG00000033867|unk|total|mutant (ssRNA)
RNA: GGGAGUUCUACAGUCCGACGAUCUGAUGCCGCUUAUAAAGCAAAAGACAGAAAUGACCUCUUAUCUGGAAUUGAUGAAUUUUCCGAUCAAGUAACUGUCCUACCUCCAGGAGAGUGGGAUCCUUCUAUACGCACCGAACCACCCAACAGAGGAUUGAGCAUCA
B9: chr10:71816642:71816777:-|3pUTR|ENSG00000197746|msi1_unk|FALSE|overlapping (ssRNA)
RNA: GGGAGUUCUACAGUCCGACGAUCUUGUUUGGGGUUCUGUGGGUUUGGGUGGGAAGAGGGCCAUCUGCCUGAAUGUAACCUGCUAGCUCUCCGAAGGCCCUGCGGGCCUGGCUUGUGUGAGCGUGUGGACAGUGGUGGCCGCGCCAACAGAGGAUUGAGCAUCA
B10: chrY:12776687:12776788:+|CDS|ENSG00000114374|msi1|FALSE|unique (ssRNA)
RNA: GGGAGUUCUACAGUCCGACGAUCGUUUUUGAUGGUGACAAAAACAGCAUUAAUUGUGCAAGACAAGAAGCCAUUCGAAUGGUUAGAGUAUUAACUGUUAUAAAAGAGUACAUUAAUGAAUGUGACAGUGAUUAUCACAAGGAACAACAGAGGAUUGAGCAUCA
B11: chr1:154944474:154944574:-|3pUTR|ENSG00000163346|msi1_unk|FALSE|overlapping (ssRNA)
RNA: GGGAGUUCUACAGUCCGACGAUCUCGAGGCCCAGCACGAGGACUUACCCUGGGGUUUUGUUAGGUUUGGAAGCAGCUGUCCCUAGGGGGUGAAGUCCCCCCCCUUUUUUUUUUUACCCCUGCUUCUCCCACGGCUUCACCUCCCAACAGAGGAUUGAGCAUCA
B12: chr4:150908776:150908877:-|CDS|ENSG00000198589|msi1|total|mutant (ssRNA)
RNA: GGGAGUUCUACAGUCCGACGAUCGUUGAUUUGUACUCCGAUUCUCUUUGUGGCAUACUAUUUAACUGUUUUUAAUUAAUUCUCCGGGUACAUUUAAAUUCAAAGCAGAAAGCGACCUUUUCCUUGCUGAGCAUCACAAACUUUCAACAGAGGAUUGAGCAUCA
B13: chr19:15272971:15273072:-|CDS|ENSG00000141867|msi1|FALSE|unique (ssRNA)
RNA: GGGAGUUCUACAGUCCGACGAUCGUCUGCGGAGAGCGGCCCUGGGACGAGAUUGAGAAAUCUGCCAGUAAUGGGGGAUGGACUAGAAACUUCCCAAAUGUCUACAACACAGGCCCAGGCCCAACCCCAGCCAGCCAACGCAGCCAACAGAGGAUUGAGCAUCA
B14: chr9:132328913:132329014:-|CDS|ENSG00000107290|msi1|FALSE|bound_elsewhere (ssRNA)
RNA: GGGAGUUCUACAGUCCGACGAUCAGAACAAAAAUCUCAAAACAAUGUAUUGCCAAAAGAGAAACAAUUAAAGAAUGAAGAAUUAGUUAUUUUCUCUUUCCAUGAAAACAAUUGUAAAAUACAGGAAUUUCAUGUUGAUGGUAACAACAGAGGAUUGAGCAUCA
B15: chr3:15690066:15690176:-|CDS|ENSG00000206560|unk|FALSE|bound_elsewhere (ssRNA)
RNA: GGGAGUUCUACAGUCCGACGAUCAGUGUUGGUACAGUCUUUGUUAGAUCUUGAUGUCAGAAAUAGUAGUGGAAGAACACCCCUAGAUCUUGCAGCUUUUAAGGGCCAUGUUGAAUGUGUGGAUGUACUCAUUAAUCAGGGAGCCAACAGAGGAUUGAGCAUCA
B16: chr2:108783740:108783841:+|CDS_3pUTR|ENSG00000153201|msi1_unk|total|mutant (ssRNA)
RNA: GGGAGUUCUACAGUCCGACGAUCCAAUAAUUCUCAAUUUGUUAUAACACUGAAGAAAGCAGAACAUUUGGACUUUAAGCAUGCCGUAUUUGGGUUUGUUAAGGAUGGCAUGGAUACUGUGAAAAAGAUUGAAUCAUUUGGUUCCAACAGAGGAUUGAGCAUCA
B17: chr9:128583791:128583907:+|CDS|ENSG00000197694|unk|total|mutant (ssRNA)
RNA: GGGAGUUCUACAGUCCGACGAUCCAACCAGCAACAGCAAUUUAAUCGCAAUGUUGAGGAUAUUGAAUUGUGGCUAUAUGAAGCCGAAGGUCACUUGGCUUCGGAUGAUUACGGCAAAGAUCUUACCAAUGUGCAGAACCUCCACAACAGAGGAUUGAGCAUCA
B18: chr20:4853394:4853498:-|3pUTR|ENSG00000089057|unk|total|mutant (ssRNA)
RNA: GGGAGUUCUACAGUCCGACGAUCUAUGACCAUGAGCUAAGUUGUUAUUUCUUUCAUUCAUAUCCCUGCUGAAAUAUUGGUACCCGCAACUUAAAGUUGGCAAGUCUCAUCUUCAGUAAUACGGAUGCCAUGGGAGUGGCCAGGCAACAGAGGAUUGAGCAUCA
B19: chr9:132328913:132329014:-|CDS|ENSG00000107290|msi1|total|mutant (ssRNA)
RNA: B14 RNA with U83C, A84C
B20: chr20:56369402:56369507:-|3pUTR|ENSG00000087586|unk|FALSE|unique (ssRNA)
RNA: GGGAGUUCUACAGUCCGACGAUCAGAAGAGGCCAUGUGUCUCAGAGCUGUUAAGGGCUUAUUUUUUUAAAACAUUGGAGUCAUAGCAUGUGUGUAAACUUUAAAUAUGCAAAUAAAUAAGUAUCUAUGUCUGUGUGGAGUGCUCAACAGAGGAUUGAGCAUCA
B21: chr22:46316300:46316401:+|CDS|ENSG00000075218|unk|FALSE|unique (ssRNA)
RNA: GGGAGUUCUACAGUCCGACGAUCGGCGGCCAGUGGCUGAACUCCAGUUGCGCUUGGUCAGAAUCUUCUCAAUUGAAUAAGACUAGAAGUAUCAGACGGCGAGAUUCCUGUCUAAAUUCCAAGACAAAGGUUAUGCCUACUCCUCAACAGAGGAUUGAGCAUCA
B22: chrX:53645320:53645442:-|CDS|ENSG00000086758|unk|FALSE|unique (ssRNA)
RNA: GGGAGUUCUACAGUCCGACGAUCUUAUUGGCUUCCUCUGAUAUGCAAGUGGUGCUGGCAGUCCUCAAUCUCCUAUAUGUAUUUAGCAAAAGAUCAAACUACAUCACUCGUCUGGGAUCUGACAAGAGGACCCCGCUGCUAACUCAACAGAGGAUUGAGCAUCA

Residue numbers refer to the chain shown, from its start. The list shows a part of the results.

This assay concerns the target T1, UNK ZnF1-6 (called full-length). Put plainly: nsRBNS (natural sequence RNA bind-n-seq); RBNS binding buffer (assumed for nsRBNS): 25 mM Tris pH 7.5, 150 mM KCl, 3 mM MgCl2, 0.01% Triton X-100, 500 ug/ml BSA, 20 U/ml SUPERase-In, 4 C; UNK is unkempt and MSI1 is Musashi-1; names of the RNAs are library labels; protein concentration not given here; high values mean tight binding.
The molecule B1 came in with a binding signal of 1.22 enrichment R.

B2 showed a binding signal of 0.809 enrichment R.

Take B3: the binding signal turned out to be 0.234 enrichment R.

B4 gave a binding signal of 0.693 enrichment R.

B5 came in with a binding signal of 0.472 enrichment R.

B6 gave a binding signal of 1.07 enrichment R.

With B7, the binding signal was 1.02 enrichment R.

In turn, B8 registered a binding signal of 0.451 enrichment R.

The molecule B9 returned a binding signal of 0.99 enrichment R.

With B10, the binding signal came out at 0.565 enrichment R.

B11 gave a binding signal of 1.37 enrichment R.

B12: the binding signal came out at 1.26 enrichment R.

In the case of B13, the binding signal came out at 0.88 enrichment R.

B14: the binding signal came out at 0.598 enrichment R.

The molecule B15 yielded a binding signal of 0.921 enrichment R.

Molecule B16 gave a binding signal of 0.395 enrichment R.

As to B17, the binding signal was 0.51 enrichment R.

For B18, the binding signal is 0.385 enrichment R.

The molecule B19 came in with a binding signal of 0.518 enrichment R.

On to B20, for which the binding signal was found to be 0.409 enrichment R.

Regarding B21, the binding signal stood at 0.572 enrichment R.

In turn, B22 returned a binding signal of 0.899 enrichment R.
